Reference: PubChem BioAssay AID504832 (National Center for Advancing Translational Sciences (NCATS), 2011)
Screen size: about 310,000 compounds; about 18,000 (5.8%) were called active. Inconclusive results, whose numbers are uncertain, are shown with a selection of clear calls. Calls follow the shape of the dose curve; as a rule, active = well fitted inhibition curve with a large enough effect; inconclusive = small, poorly fitted or top-dose-only effect, or another doubt; inactive = no such curve, though single readings can be large or run the other way. No potency is given beside an inconclusive call; the fits are too rough.

Experiment: Primary qHTS for delayed death inhibitors of the malarial parasite plastid, 48 hour incubation
Details: P. falciparum luciferase growth in erythrocytes; series mostly up to 28.7 µM
How it was run: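 Parasite viability was followed by luminescence of a genomically integrated firefly luciferase. Cultures held 0.1% parasitemia at 2% hematocrit (final), incubated under 5% CO2 at 37 C.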
% is scaled to controls: 0 for no effect and ±100 for the full control effect; potency is read from the fitted curve at half-maximal effect; tags tell the direction and shape of the fitted curve.

Row | SMILES | Potency | activity change, negative = inhibition
1 | CC1(C)C(=O)Nc2ccccc2N1C(=O)COC(=O)c1cccnc1 | inconclusive [inhibitor, single point] | –
2 | Cc1ccc(Cl)cc1N1CCN(S(=O)(=O)c2ccc(-c3ccc(=O)[nH]n3)o2)CC1 | inconclusive [inhibitor, partial curve] | –
3 | CN(C)c1nc(=NCc2ccco2)ss1 | inconclusive [inhibitor, single point] | –
4 | O=S(=O)(Nc1ccc(-c2nc3cccnc3s2)cc1)c1ccc(Cl)s1 | inactive | –
5 | Cc1ccc(-c2[nH]c3ccccc3c2SCCNC(=O)c2cc3ccccc3oc2=O)cc1 | inconclusive [inhibitor, full curve] | –
6 | O=C(c1ccoc1)N1CCC2(CC1)Oc1ccc(F)cc1C(=O)C21CC(c2cccnc2)=NO1 (stereo not given) | inconclusive [inhibitor, single point] | –
7 | COc1cc(OC)cc(-c2c(-c3ccc(F)cc3)c3cc(-c4ccc5[nH]ccc5c4)ccc3n2C)c1 | active: 5.22 µM | –
8 | Cc1ccc(CC2CC(=O)N(c3cc(C)ccc3C)C2=O)cc1 (stereo not given) | inactive | –
9 | O=S(c1ccc2ccccc2c1)c1cnns1 (stereo not given) | inconclusive [inhibitor, partial curve, poor fit] | –
10 | Cc1nn(CC2CC2)c(=O)n1-c1ccccc1 | inactive | –
11 | O=C(CSc1nc(NS(=O)(=O)c2ccccc2)cc(=O)[nH]1)Nc1cccc(C(F)(F)F)c1 | inconclusive [inhibitor, partial curve, poor fit] | –
12 | COc1ccc(NC(=O)c2cc(CC(C)C)on2)cc1OC | inactive | –
13 | COC(=O)N/N=C/c1ccc(OCCSc2ccc(Cl)cc2)c(OC)c1 | inconclusive [inhibitor, partial curve] | –
14 | COc1ccc(O)c(CN2CCC(n3nccc3NC(=O)C3CCCC3)CC2)c1 | active: 13.1 µM | –
15 | COc1ccc(C(C)C)cc1S(=O)(=O)NC1CCCC1 | inconclusive [inhibitor, partial curve] | –
16 | CC(=O)c1c(COC(=O)c2ccncc2)nc2ccccc2[n+]1[O-] | inconclusive [inhibitor, single point] | –
17 | C=CCSc1nnc(NC(=O)c2cccc(S(=O)(=O)N3CCOCC3)c2)s1 | inconclusive [inhibitor, full curve, poor fit] | –
18 | O=C(NC(=S)Nc1ccc(NC(=O)c2ccccc2)cc1)c1ccc(F)cc1 | active: 6.57 µM | –
19 | O=C(c1cccc2ccccc12)N1CCN(c2ccc([N+](=O)[O-])c(N3CCOCC3)c2)CC1 | inconclusive [inhibitor, partial curve, poor fit] | –
20 | CC(C)/C(=N\NC(=O)Nc1ccccc1)c1ccccc1 | inconclusive [inhibitor, full curve] | –
21 | COc1ccc(-c2nn(Cc3ccccc3)cc2C(=O)N2CCN(c3ncccn3)CC2)cc1 | active: 13.1 µM | –
22 | CCn1ncc(Br)c1C(=O)Nc1ccccc1OC | inactive | –
23 | Cc1ccn2c(Nc3ccccc3C)c(-c3cccnc3)nc2c1 | inconclusive [inhibitor, single point] | –
24 | Nn1c(SCC(=O)NNC(=O)c2ccccc2)nnc1-c1ccccc1F | inconclusive [inhibitor, single point] | –

Row | SMILES | Potency | activity change, negative = inhibition
25 | COc1ccccc1/C=C/C(=O)NCCC1=CCCCC1 | inconclusive [inhibitor, single point] | –
26 | COc1ccc(O)c(C(=O)c2cnn(C(=O)c3cc(C)oc3C)c2)c1 | inactive | –
27 | Oc1cc(NCc2cccnc2)ccc1-c1nc2ccccc2o1 | inactive | –
28 | COc1ccc(S(=O)(=O)N2CCOCC2)cc1NC(=O)c1ccc(OC(F)F)cc1 | inconclusive [inhibitor, single point] | –
29 | Nc1no[n+]([O-])c1-c1ccccc1 | inconclusive [inhibitor, partial curve, poor fit] | –
30 | Cc1ccc(OCC(=O)Nc2ccc(S(=O)(=O)N3CCOCC3)cc2)c(C)c1 | inconclusive [inhibitor, single point] | –
31 | COc1ccc(-n2nc(C(=O)NCC(=O)N3CCCC3)c3ccccc3c2=O)cc1 | inactive | –
32 | CCOc1cc(CNn2c(C)nnc2SCC(=O)NC(C)(C)C)ccc1OCC(=O)NC(C)(C)C | inconclusive [inhibitor, partial curve] | –
33 | Cc1ccc(C)c(N2CCN(C(=O)c3nn(C)c4c3CS(=O)(=O)c3ccccc3-4)CC2)c1 | inconclusive [inhibitor, single point] | –
34 | COC(=O)C1NN=C(C(=O)c2ccc(Cl)cc2)C1c1ccc(OC)cc1 (stereo not given) | inactive | –
35 | COC(=O)C(CC(=O)O)NCc1ccco1 (stereo not given) | inactive | –
36 | Cc1nc(N)nc(Cl)c1Cc1ccc(Cl)cc1 | inconclusive [inhibitor, single point] | –
37 | O=C(NC(=S)Nc1cccnc1Cl)c1ccc(F)cc1 | inactive | –
38 | O=C(Nc1ccc(S(=O)(=O)N2CCc3ccccc3C2)cc1)c1ccccc1 | inconclusive [inhibitor, partial curve, poor fit] | –
39 | Cc1ccc(NC(=O)C2CCCN(S(=O)(=O)c3c(C)noc3/C=C/N(C)C)C2)c(C)c1 (stereo not given) | inconclusive [inhibitor, partial curve, poor fit] | –
40 | O=C(CSc1nnc(-c2ccncc2)o1)Nc1ccc(F)c(F)c1 | inactive | –
41 | COc1cnc(-c2ccccn2)nc1Sc1ccccc1 | active: 13.1 µM | –
42 | Cc1cccc(C)c1OCC(=O)Nc1ccc(NC(=O)c2ccco2)cc1 | inconclusive [inhibitor, single point] | –
43 | CCCCOc1cccc(C(=O)Nc2ccc(NC(=O)c3cccs3)cc2)c1 | inactive | –
44 | O=C(Nc1ccncc1)c1ccc(Cl)c(Cl)c1 | inconclusive [inhibitor, partial curve] | –
45 | CCOC(=O)C1(S(=O)(=O)c2ccc(Cl)cc2)CCN(Cc2ccccc2)CC1 | inconclusive [inhibitor, partial curve] | –
46 | N#Cc1nc(-c2ccc(Cl)cc2)oc1NCCc1ccccn1 | inactive | –
47 | CCOC(=O)c1cc2c(=O)n3ccccc3nc2n(Cc2ccco2)c1=NC(=O)c1ccc(OC)cc1OC | inconclusive [inhibitor, partial curve] | –
48 | Cc1ccc(O)c(C(=O)c2cc(C#N)c(=O)n(CC3CCCO3)c2)c1 (stereo not given) | inconclusive [inhibitor, single point] | –

Row | SMILES | Potency | activity change, negative = inhibition
49 | COc1ccc(C)cc1-n1nnnc1SCC(=O)NC1CCCC1 | inconclusive [inhibitor, single point] | –
50 | O=C(c1cc(C(=O)NCc2ccc(Cl)cc2)c(=O)n(Cc2ccc(Cl)cc2)c1)c1cc(F)ccc1O | active: 2.94 µM | –
51 | CC(C)CNS(=O)(=O)c1ccc(CCC(=O)NCc2ccco2)cc1 | inactive | –
52 | O=C(NCc1ccc(F)cc1)c1ccc(N2CCc3ccccc32)c([N+](=O)[O-])c1 | inconclusive [inhibitor, partial curve] | –
53 | COc1ccccc1NC(=O)c1ccc(Cl)c(S(=O)(=O)N2CCCCC2)c1 | inconclusive [inhibitor, single point] | –
54 | C#C[C@]1(OC(C)=O)CCC2C3CCC4=CC(=O)CC[C@@H]4C3CC[C@@]21C (stereo not given in full) | inactive | –
55 | O=C1c2ccc3c4c(ccc(c24)C(=O)N1c1ccc2ccccc2c1)CC3 | inconclusive [inhibitor, partial curve] | –
56 | CCCSc1ccc(-c2nn(-c3ccccc3)cc2/C=C(/C#N)C(=O)N2CCOCC2)cc1 | inconclusive [inhibitor, single point] | –
57 | O=C(Cc1ccc(Cl)cc1)NNC(=O)c1cnccn1 | inconclusive [inhibitor, full curve, poor fit] | –
58 | O=C1c2cc(Cl)ccc2OC2(CCNCC2)C12CC(c1ccc(Cl)cc1)=NO2 (stereo not given) | inconclusive [inhibitor, partial curve] | –
59 | Cn1ncc2c(Nc3ccccc3Cl)nc(Nc3ccccc3Cl)nc21 | active: 7.38 µM | –
60 | COC(CNC(=O)CCc1c(C)nc2c(-c3ccccc3)c(C)nn2c1C)OC | – | inactive: 2.39% [at 0.00184 µM]
61 | Cc1ccc(C)c(S(=O)(=O)N2CCCC2CNC(=O)C(=O)NC2CCCCCC2)c1 (stereo not given) | inconclusive [inhibitor, full curve, poor fit] | –
62 | CCOC(=O)c1ccc(NC(=O)CN(c2ccc(C)cc2)S(=O)(=O)c2c(C)nn(C)c2C)cc1 | active: 10.4 µM | –
63 | COc1cccc(NC(=O)Nc2ccc3c(c2)nc(C)n3C)c1 | inactive | –
64 | CC(C)(C)c1ccc(OCCC(=O)Nc2cccc(S(=O)(=O)NC3=NCCCCC3)c2)cc1 | active: 11.7 µM | –
65 | COc1cc2[nH]c(=O)n(CCC(=O)N3CCN(Cc4ccccc4)CC3)c(=O)c2cc1OC | inconclusive [inhibitor, partial curve] | –
66 | COC(=O)c1cc(Br)ccc1-c1ccc(/C=N/n2nnnc2N)o1 | inconclusive [inhibitor, partial curve] | –
67 | COc1ccc(NC(=O)c2[nH]c(C)c(C(C)=O)c2C)cc1S(=O)(=O)Nc1ccc(Br)cc1 | inconclusive [inhibitor, single point] | –
68 | CCOc1ccc(C(=O)NC(=S)Nc2ccc(N3CCC(C)CC3)cc2)cc1[N+](=O)[O-] | inactive | –
69 | Cc1cnc2c(c1)C(=O)c1ccccc1-2 | inactive | –
70 | O=C(NCC1CCCO1)c1ccc2c(c1)N(Cc1ccc(F)cc1)CCS2 (stereo not given) | inconclusive [inhibitor, single point] | –
